# Measured values from PubChem BioAssay (NCATS).
# This list was built around the results that the source calls inconclusive (neither active nor inactive); the mix of calls is not that of the screen. For part of these data: Where the call is inconclusive, the potency comes from a doubtful curve fit. For part of these data: “Side channel” marks fits to a control or component signal instead of the main read-out. Calls of active or inactive are those of the source. Unless noted, calls come from the whole dose curve; as a rule, active = well fitted curve in either direction with a large enough effect (not every such curve was filed as active); inconclusive = small, poorly fitted or top-dose-only effect, or another doubt; inactive = flat fitted curve, though single readings scatter.
# Experiments:
# [1] = NFAT Signaling Pathway (AID 444); details: Jurkat NFAT-bla M1, carbachol, beta-lactamase ratio, 5 h; at 7.69 µM (top of the series) unless noted;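 note: carbachol stimulus at about its EC50 of 1 µM final; % is set by controls: 0 for no effect and ±100 for the full control effect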
# How it was run: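 Read-out: CCF4 FRET ratio (460 nm/530 nm) after 1 h RT dye loading, used for %activity and AC50 from titration series. Cells: Jurkat NFAT-β-lactamase/M1 line, treated with compound plus 1 uM carbachol for 5 h, 37 °C.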
# [2] = qHTS Assay for Identification of Small Molecule Agonists for Hypoxia Response Element Signaling Pathway (AID 914; active = well fitted activation curve with a large enough effect in the signal ratio, with a control signal flat, not every such curve was filed as active; inconclusive = small, poorly fitted or top-dose-only effect, or effect the other way, or a change in a side signal; the % refers to the signal ratio; note: potency is the fitted concentration of half-maximal effect; for activation: top concentration of the series differs between compounds; % of control where 0% means no effect); details: ME-180 (cervical carcinoma) HRE-bla reporter, beta-lactamase ratio, CoCl2, 17 h; activation: active compounds read high
# How it was run: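 qHTS titration; ME-180 HRE-bla cells; EC50 CoCl2 co-treatment, 17 h at 37 degrees Celsius; CCF4 dye, ex 405nm, em 460nm and 530nm; %Activity from ratio; AC50.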
# [3] = biological target: Ubiquitin carboxyl-terminal hydrolase 1 (Homo sapiens) (UniProt O94782); experiment: Inhibitors of USP1/UAF1: Pilot qHTS (AID 504865; active = well fitted curve in the direction sought with a large enough effect; inconclusive = small, poorly fitted or top-dose-only effect, or another doubt; inactive = no such curve, though single readings can be large; an effect the other way counts as inactive or inconclusive;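 note: rhodamine fluorescence freed from ubiquitin-rhodamine substrate followed over time; potency is the fitted concentration of half-maximal effect; nearly all actives have a fitted effect of over 35% in size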)
# How it was run: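 USP1/UAF1 complex at 1 nM preincubated 15 min at room temperature with compound, then Ub-Rho substrate added at 150 nM final. Fluorescence (480/540 nm) read kinetically in 50 mM HEPES pH 7.8, 0.5 mM EDTA, 1 mM TCEP, 0.1 mg/ml BSA, 0.01% Tween-20.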
# [4] = biological target: 3',5'-cyclic-AMP phosphodiesterase 4B (Homo sapiens) (UniProt Q07343); experiment: qHTS Assay for Inhibitors of PDE-IV (AID 607; active = well fitted activation curve with a large enough effect in the main read-out, with a control signal flat, not every such curve was filed as active; inconclusive = small, poorly fitted or top-dose-only effect, or effect the other way, or a change in a side signal; note: potency is the fitted concentration of half-maximal effect; for activation (PDE inhibition): % of control where 0% means no effect); details: HEK293 ACTOne CNG channel cells, membrane potential fluorescence; activation (PDE inhibition): at 22.9 µM (top of the series)
# How it was run: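 The readout is membrane depolarisation from a cAMP-sensing CNG channel, detected with a potential dye at ex 535/em 590. Cells were HEK293-derived (endogenous PDE-IV) at 1000 cells/well, titrated up to 22.9 uM final.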
# [5] = biological target: Mitogen-activated protein kinase 10 (Mus musculus) (UniProt Q61831); experiment: JNK3 AlphaScreen Assay (AID 530); details: JNK3 lysate, c-Jun phosphorylation; activity change, negative = inhibition: at 57.1 µM (top of the series);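 note: kinase came from lysate of stimulated human HepG2 cells; signal reports phosphorylation of biotinylated GST-cJun 1-79 at Ser73 with 10 µM ATP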; note: potency is the fitted concentration of half-maximal effect; for activity change, negative = inhibition: % is set by controls: 0 for no effect and ±100 for the full control effect
# How it was run: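 qHTS titrations with 15 min compound pre-incubation before adding ATP (10 uM final). Read-out: AlphaScreen of Ser73-phosphorylated biotin-GST-cJun using HepG2 lysate JNK3 activated by IL-1β and TNFα.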
# [6] = biological target: Cytochrome P450 2C9 (Homo sapiens) (UniProt P11712); experiment: qHTS Assay for Inhibitors and Substrates of Cytochrome P450 2C9 (AID 883; active = well fitted curve in the direction sought with a large enough effect; inconclusive = small, poorly fitted or top-dose-only effect, or another doubt; inactive = no such curve, though single readings can be large; an effect the other way counts as inactive or inconclusive; note: potency is the fitted concentration of half-maximal effect; nearly all actives have a fitted effect of over 60% in size)
# How it was run: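 Turnover of Luciferin-H (100uM, KM) by 10nM human CYP2C9 was measured over 60 min at 37C with NADPH regeneration; inhibitors and some substrates reduce luminescence. Data normalized to sulphaphenazole 57uM.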
# [7] = biological target: Cytochrome P450 3A4 (Homo sapiens) (UniProt P08684); experiment: qHTS Assay for Inhibitors and Substrates of Cytochrome P450 3A4 (AID 884; active = well fitted curve in the direction sought with a large enough effect; inconclusive = small, poorly fitted or top-dose-only effect, or another doubt; inactive = no such curve, though single readings can be large; an effect the other way counts as inactive or inconclusive; note: potency is the fitted concentration of half-maximal effect; nearly all actives have a fitted effect of over 50% in size)
# How it was run: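 Luminescent readout of luciferin produced by CYP3A4 (20 nM) dealkylation of Luciferin-PPXE, 25 uM (its KM). NADPH-driven reaction ran 60 min at RT after 10 min compound preincubation; data scaled to 57 uM ketoconazole as 100% inhibition.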
# [8] = biological target: Cytochrome P450 2D6 (Homo sapiens) (UniProt P10635); experiment: qHTS Assay for Inhibitors and Substrates of Cytochrome P450 2D6 (AID 891; active = well fitted curve in the direction sought with a large enough effect; inconclusive = small, poorly fitted or top-dose-only effect, or another doubt; inactive = no such curve, though single readings can be large; an effect the other way counts as inactive or inconclusive;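 note: luciferin methyl ether substrate demethylated by CYP2D6 with NADPH regeneration; potency is the fitted concentration of half-maximal effect; nearly all actives have a fitted effect of over 60% in size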)
# How it was run: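 Luminescent read-out of luciferin formed by 5 nM human CYP2D6 demethylating 30 uM Luciferin-ME EGE (Km level) over 60 min at room temperature after NADPH regeneration addition. Data normalized to full inhibition by 1.43 uM quinidine.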
# [9] = biological target: Cytochrome P450 2C19 (Homo sapiens) (UniProt P33261); experiment: qHTS Assay for Inhibitors and Substrates of Cytochrome P450 2C19 (AID 899; active = well fitted curve in the direction sought with a large enough effect; inconclusive = small, poorly fitted or top-dose-only effect, or another doubt; inactive = no such curve, though single readings can be large; an effect the other way counts as inactive or inconclusive; note: potency is the fitted concentration of half-maximal effect; nearly all actives have a fitted effect of over 60% in size)
# How it was run: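 Reactions contain 5nM enzyme, 10uM Luciferin-H EGE (KM) and 50mM KPO4; compound preincubates 10 min at 37C, NADPH regeneration starts turnover for 60 min. Luminescence after detection reagent gives activity.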
# [10] = test system: CP194; experiment: qHTS profiling for inhibitors of Plasmodium falciparum proliferation (AID 504749; active = well fitted curve in the direction sought with a large enough effect; inconclusive = small, poorly fitted or top-dose-only effect, or another doubt; inactive = no such curve, though single readings can be large; an effect the other way counts as inactive or inconclusive; note: nearly all actives have a fitted effect of over 60% in size; note: potency is the fitted concentration of half-maximal effect); details: P. falciparum in erythrocytes, SYBR Green DNA, 72 h; series mostly up to 28.7 µM
# How it was run: (§1)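 SYBR Green fluorescence of parasite DNA, read after lysis and overnight dark incubation, measured growth over 72 h in erythrocyte culture at 0.3% parasitemia and 2.5% hematocrit. Data normalised to DMSO and 0.29 uM artemisinin, with plate-drift correction.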
# [11] = test system: CP260; experiment: as above; details: P. falciparum in erythrocytes, SYBR Green DNA, 72 h; series mostly up to 28.7 µM
# How it was run: as §1
# [12] = test system: P94_40; experiment: as above; details: P. falciparum in erythrocytes, SYBR Green DNA, 72 h; series mostly up to 28.7 µM
# How it was run: as §1
# [13] = test system: PAD; experiment: as above; details: P. falciparum in erythrocytes, SYBR Green DNA, 72 h; series mostly up to 28.7 µM
# How it was run: as §1
# [14] = qHTS Assay for Identification of Small Molecule Antagonists for NFkB Signaling Pathway (AID 895; active = well fitted inhibition curve with a large enough effect in the signal ratio, with a control signal flat, not every such curve was filed as active; inconclusive = small, poorly fitted or top-dose-only effect, or effect the other way, or a change in a side signal; the % refers to the signal ratio; note: % is set by controls: 0 for no effect and ±100 for the full control effect); details: NFkB beta-lactamase reporter cells, FRET ratio 460/530; activity change, negative = inhibition: at 38.3 µM (top of the series) unless noted
# How it was run: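 Beta-lactamase reporter read-out (460 and 530 nm emission ratio, 405 nm excitation, 2 hrs substrate loading RT) after 5 hr stimulation with 10 pM TNF alpha in compound-treated NFkB-bla ME-180 cells in low-serum medium.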
# [15] = qHTS Assay for Identification of Small Molecule Agonists for Thrombopoietin (TPO) Signaling Pathway (AID 917; active = well fitted curve in the direction sought with a large enough effect; inconclusive = small, poorly fitted or top-dose-only effect, or another doubt; inactive = no such curve, though single readings can be large; an effect the other way counts as inactive or inconclusive; note: potency is the fitted concentration of half-maximal effect)
# How it was run: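 Stimulation at the TPO EC50 (26 pM final) was used to detect activators. Ba/F3 mouse cells bearing human TPO receptor and a luciferase reporter under the Glycoprotein IIb promoter were exposed to compounds for 24 hrs at 37 C.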
# [16] = biological target: Muscarinic acetylcholine receptor M1 (Rattus norvegicus) (UniProt P08482); experiment: qHTS Assay for Antagonists of Acetylcholine Muscarinic M1 Receptor: Kinetic Measurement of Intracellular Calcium Response (AID 943; active = well fitted curve in the direction sought with a large enough effect; inconclusive = small, poorly fitted or top-dose-only effect, or another doubt; inactive = no such curve, though single readings can be large; an effect the other way counts as inactive or inconclusive; note: potency is the fitted concentration of half-maximal effect; nearly all actives have a fitted effect of over 75% in size)
# How it was run: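 Antagonism measured as reduction of carbachol-evoked (EC80, 100 nM final) calcium flux in rat M1-CHO cells after 10 min compound exposure. Fluo-4 signal read kinetically; ratio of maximal to basal fluorescence.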
# [17] = biological target: Muscarinic acetylcholine receptor M1 (Rattus norvegicus) (UniProt P08482); experiment: qHTS Assay for Antagonists of Acetylcholine Muscarinic M1 Receptor: Measurement of IP-One Response (AID 944; active = well fitted curve in the direction sought with a large enough effect; inconclusive = small, poorly fitted or top-dose-only effect, or another doubt; inactive = no such curve, though single readings can be large; an effect the other way counts as inactive or inconclusive; note: potency is the fitted concentration of half-maximal effect; nearly all actives have a fitted effect of over 75% in size)
# Tags give direction and shape of the fitted curve or compound fluorescence and quenching.
# Sequence of UniProt Q07343 (Q07343 whole entry, looked up): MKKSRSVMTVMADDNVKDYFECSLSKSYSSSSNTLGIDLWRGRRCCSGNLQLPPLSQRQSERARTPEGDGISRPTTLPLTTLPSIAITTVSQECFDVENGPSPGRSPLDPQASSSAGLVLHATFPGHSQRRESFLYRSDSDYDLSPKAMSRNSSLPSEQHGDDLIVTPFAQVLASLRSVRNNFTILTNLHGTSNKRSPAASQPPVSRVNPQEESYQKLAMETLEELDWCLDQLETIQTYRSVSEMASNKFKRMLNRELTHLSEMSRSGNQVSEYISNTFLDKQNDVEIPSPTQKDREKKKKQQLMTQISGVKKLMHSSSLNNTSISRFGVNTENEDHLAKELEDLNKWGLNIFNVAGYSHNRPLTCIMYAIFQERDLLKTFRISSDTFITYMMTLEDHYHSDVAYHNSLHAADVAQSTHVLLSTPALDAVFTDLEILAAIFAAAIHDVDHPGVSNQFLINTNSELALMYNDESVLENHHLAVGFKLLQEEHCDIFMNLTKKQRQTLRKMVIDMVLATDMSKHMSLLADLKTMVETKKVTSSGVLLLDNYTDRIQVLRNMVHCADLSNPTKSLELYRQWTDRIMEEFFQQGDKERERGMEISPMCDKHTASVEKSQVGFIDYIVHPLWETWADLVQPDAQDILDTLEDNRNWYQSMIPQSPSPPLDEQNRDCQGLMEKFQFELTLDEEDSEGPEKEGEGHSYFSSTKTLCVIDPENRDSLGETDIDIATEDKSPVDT
# Sequence of UniProt P08482 (P08482 whole entry, looked up): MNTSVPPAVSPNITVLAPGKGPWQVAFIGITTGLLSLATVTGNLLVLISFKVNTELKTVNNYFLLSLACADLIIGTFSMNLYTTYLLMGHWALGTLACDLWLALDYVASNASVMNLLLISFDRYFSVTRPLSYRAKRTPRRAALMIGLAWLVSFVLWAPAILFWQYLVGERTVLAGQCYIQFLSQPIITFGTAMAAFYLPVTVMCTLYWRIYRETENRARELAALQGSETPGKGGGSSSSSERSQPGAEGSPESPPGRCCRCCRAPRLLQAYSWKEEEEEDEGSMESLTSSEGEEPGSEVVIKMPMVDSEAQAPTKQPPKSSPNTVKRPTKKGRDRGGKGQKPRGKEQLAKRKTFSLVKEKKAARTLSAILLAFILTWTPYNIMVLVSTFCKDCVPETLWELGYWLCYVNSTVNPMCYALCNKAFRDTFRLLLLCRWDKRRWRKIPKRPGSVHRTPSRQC
# Sequence of UniProt O94782 (O94782 whole entry, looked up): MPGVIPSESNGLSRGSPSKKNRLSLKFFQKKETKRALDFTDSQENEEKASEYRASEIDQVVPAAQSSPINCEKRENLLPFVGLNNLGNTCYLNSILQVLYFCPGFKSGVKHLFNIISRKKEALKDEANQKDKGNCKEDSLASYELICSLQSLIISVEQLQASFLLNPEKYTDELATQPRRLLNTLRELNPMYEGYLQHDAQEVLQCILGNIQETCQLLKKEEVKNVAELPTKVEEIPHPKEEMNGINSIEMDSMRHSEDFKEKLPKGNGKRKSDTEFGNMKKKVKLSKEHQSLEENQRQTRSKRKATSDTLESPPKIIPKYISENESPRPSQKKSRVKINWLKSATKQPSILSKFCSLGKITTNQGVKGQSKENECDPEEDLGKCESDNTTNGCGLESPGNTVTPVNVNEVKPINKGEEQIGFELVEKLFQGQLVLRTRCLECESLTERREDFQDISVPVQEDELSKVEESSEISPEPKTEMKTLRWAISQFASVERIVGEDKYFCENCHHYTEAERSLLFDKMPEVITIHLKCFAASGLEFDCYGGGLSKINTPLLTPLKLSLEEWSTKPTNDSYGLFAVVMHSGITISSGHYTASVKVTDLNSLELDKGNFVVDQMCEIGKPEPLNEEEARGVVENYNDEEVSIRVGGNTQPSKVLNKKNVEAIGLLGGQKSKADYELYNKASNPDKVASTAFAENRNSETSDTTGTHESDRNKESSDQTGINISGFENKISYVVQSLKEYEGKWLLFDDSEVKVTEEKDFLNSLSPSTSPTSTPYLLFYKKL
# Sequence of UniProt P08684 (P08684 whole entry, looked up): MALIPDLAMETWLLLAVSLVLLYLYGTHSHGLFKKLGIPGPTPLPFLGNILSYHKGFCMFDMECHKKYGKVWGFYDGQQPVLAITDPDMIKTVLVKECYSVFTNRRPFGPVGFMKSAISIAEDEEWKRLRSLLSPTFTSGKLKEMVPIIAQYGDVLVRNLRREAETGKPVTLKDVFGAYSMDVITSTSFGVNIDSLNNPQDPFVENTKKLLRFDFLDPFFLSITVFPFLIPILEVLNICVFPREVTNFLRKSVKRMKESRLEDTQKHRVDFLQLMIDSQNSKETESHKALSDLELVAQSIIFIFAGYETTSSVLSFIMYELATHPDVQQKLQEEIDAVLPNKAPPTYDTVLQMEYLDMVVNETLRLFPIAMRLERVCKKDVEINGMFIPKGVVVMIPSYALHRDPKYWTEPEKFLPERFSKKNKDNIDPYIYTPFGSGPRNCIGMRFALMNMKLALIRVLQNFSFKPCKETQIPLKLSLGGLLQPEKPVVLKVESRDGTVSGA
# Sequence of UniProt P11712 (P11712 whole entry, looked up): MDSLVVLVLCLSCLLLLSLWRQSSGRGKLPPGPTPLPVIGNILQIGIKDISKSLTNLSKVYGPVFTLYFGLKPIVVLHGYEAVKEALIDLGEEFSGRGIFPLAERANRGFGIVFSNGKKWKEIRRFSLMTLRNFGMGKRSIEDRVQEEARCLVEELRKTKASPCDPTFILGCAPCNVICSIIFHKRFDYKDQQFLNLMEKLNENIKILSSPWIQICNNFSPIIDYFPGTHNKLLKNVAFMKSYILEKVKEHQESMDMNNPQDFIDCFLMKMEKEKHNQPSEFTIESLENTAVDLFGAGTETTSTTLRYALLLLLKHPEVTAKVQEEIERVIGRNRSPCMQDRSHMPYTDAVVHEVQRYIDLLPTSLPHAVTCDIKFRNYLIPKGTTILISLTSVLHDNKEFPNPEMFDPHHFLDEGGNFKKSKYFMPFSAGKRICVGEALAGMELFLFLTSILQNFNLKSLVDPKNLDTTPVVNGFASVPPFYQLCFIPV
# Sequence of UniProt P10635 (P10635 whole entry, looked up): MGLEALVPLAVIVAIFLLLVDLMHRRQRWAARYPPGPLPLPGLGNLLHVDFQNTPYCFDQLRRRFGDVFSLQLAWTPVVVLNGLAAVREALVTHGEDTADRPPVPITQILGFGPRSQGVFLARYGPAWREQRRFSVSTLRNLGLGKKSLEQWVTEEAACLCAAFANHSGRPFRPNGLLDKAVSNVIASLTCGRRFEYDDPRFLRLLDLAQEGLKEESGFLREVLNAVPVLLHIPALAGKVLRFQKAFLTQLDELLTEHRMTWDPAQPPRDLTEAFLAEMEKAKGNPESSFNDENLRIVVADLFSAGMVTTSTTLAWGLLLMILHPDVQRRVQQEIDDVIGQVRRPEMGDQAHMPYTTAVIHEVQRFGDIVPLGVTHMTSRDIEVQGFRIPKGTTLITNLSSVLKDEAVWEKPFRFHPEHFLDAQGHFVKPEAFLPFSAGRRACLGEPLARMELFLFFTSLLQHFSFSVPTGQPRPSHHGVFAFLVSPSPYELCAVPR
# Sequence of UniProt P33261 (P33261 whole entry, looked up): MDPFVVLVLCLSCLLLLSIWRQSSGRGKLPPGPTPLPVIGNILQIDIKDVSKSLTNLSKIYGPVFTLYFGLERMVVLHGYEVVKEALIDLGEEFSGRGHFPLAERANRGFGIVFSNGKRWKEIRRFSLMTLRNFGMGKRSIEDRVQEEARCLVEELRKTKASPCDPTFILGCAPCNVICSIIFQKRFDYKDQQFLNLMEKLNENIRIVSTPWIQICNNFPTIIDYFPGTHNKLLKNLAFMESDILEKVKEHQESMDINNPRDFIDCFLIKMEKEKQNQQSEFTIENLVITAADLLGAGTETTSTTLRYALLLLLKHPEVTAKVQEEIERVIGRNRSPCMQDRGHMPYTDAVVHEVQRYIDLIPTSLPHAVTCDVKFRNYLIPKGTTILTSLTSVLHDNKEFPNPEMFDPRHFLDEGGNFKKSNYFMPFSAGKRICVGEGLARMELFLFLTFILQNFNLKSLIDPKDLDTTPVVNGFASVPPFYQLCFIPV
compound,measurement,setting,value
CCN(CC)C(=O)N[C@H]1C=C2c3cccc4[nH]cc(c34)C[C@@H]2N(C)C1,"activity change, negative = inhibition",[1],inconclusive: -52.3% [inhibitor] [at 17.2 µM]
same,Potency,[2],"inconclusive: 1.26 µM [inhibitor, full curve]"
same,Potency,[3],active: 35.5 µM
O=C(CCCN1CCC2(CC1)C(=O)N(CCc1ccc(N=C=S)cc1)CN2c1ccccc1)c1ccc(F)cc1,"activity change, negative = inhibition",[1],inconclusive: -59.5% [inhibitor] [at 38 µM]
same,Potency,[4],inactive
same,Potency,[2],"inconclusive: 15.8 µM [cytotoxic, side channel, partial curve]"
CC(C)=C[C@H]1[C@@H](C(=O)OCc2cc3c(cc2Cl)OCO3)C1(C)C,"activity change, negative = inhibition",[1],inconclusive: -35.4% [inhibitor]
same,Potency,[5],"inconclusive: 3.98 µM [activator, single point]"
same,Potency,[6],"inconclusive: 3.16 µM [inhibitor, partial curve]"
same,Potency,[7],active: 0.316 µM
same,Potency,[8],"inconclusive: 5.01 µM [inhibitor, partial curve]"
same,Potency,[9],active: 1.58 µM
CC1(C)CCC(C)(C)c2c1ccc(O)c2Cc1c(O)ccc2c1C(C)(C)CCC2(C)C,"activity change, negative = inhibition",[1],inconclusive: -38.5% [inhibitor]
same,Potency,[4],inactive
CC(=O)OCC(=O)[C@@H]1CC[C@H]2[C@H]3CC[C@H]4C[C@@H](O)CC[C@]4(C)[C@@H]3C(=O)C[C@@]12C,"activity change, negative = inhibition",[1],inconclusive: 30% [activator] [at 17.2 µM]
same,Potency,[10],inactive
same,Potency,[11],"inconclusive: 10 µM [inhibitor, single point]"
same,Potency,[12],inactive
same,Potency,[13],inactive
C[C@H]1[C@@H](O)[C@@H](C)/C=C\C=CCC\C=C/C=C\C=C/C=C[C@@H](O[C@H]2O[C@@H](C)[C@@H](O)[C@@H](N)[C@@H]2O)C[C@@H]2O[C@@](O)(C[C@@H](O)[C@H]2C(=O)O)C[C@@H](O)[C@@H](O)CC[C@@H](O)C[C@@H](O)C[C@@H](O)CC(=O)O[C@H]1C,"activity change, negative = inhibition",[1],inactive: 1.26% [at 17.2 µM]
same,Potency,[3],"inconclusive: 20 µM [inhibitor, partial curve, poor fit]"
CN1C[C@@H](CNC(=O)OCc2ccccc2)C[C@H]2c3cccc4c3c(cn4C)C[C@@H]21,"activity change, negative = inhibition",[1],inactive: 0.446% [at 38 µM]
same,Potency,[4],"inconclusive: 2 µM [rising, partial curve, poor fit]"
c1ccc(CN2CCC3(CCNCC3)CC2)cc1,"activity change, negative = inhibition",[1],inconclusive: -58.5% [inhibitor]
same,Potency,[5],inactive
same,Potency,[2],"inconclusive: 5.01 µM [activator, single point]"
NC(=O)c1ccc(OC[C@H](O)CN2CC=C(c3ccc(F)cc3)CC2)cc1,"activity change, negative = inhibition",[1],inconclusive: -62.1% [inhibitor] [at 38 µM]
same,Potency,[5],"inconclusive: 0.794 µM [activator, partial curve, poor fit]"
same,Potency,[4],inactive
same,Potency,[14],inactive
same,activation,[2],inactive: -0.382%
same,Potency,[15],"inconclusive: 251 nM [inhibitor, full curve, poor fit] [stimulated with TPO at its EC50]"
same,Potency,[16],active: 6.31 µM
same,Potency,[17],"inconclusive: 14.1 µM [inhibitor, partial curve, poor fit]"
O=C(c1csnn1)N1CCC2(CC1)CN(Cc1ccncc1)C2,"activity change, negative = inhibition",[1],inconclusive: -47.5% [inhibitor]
same,Potency,[4],inactive
